Assay results as given in publication PMC4336329 (PLoS ONE, 2015).
The campaign covered roughly 310,000 compounds. About 14,000 (4.5%) showed an effect of 50% or more. The effect is printed as a negative number. Some of the results follow.
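Also: peak tail current of the secondary pulse compared with the same well before compound.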

The compounds below were run against human ether-à-go-go-related gene (hERG) potassium channel (human, UniProt Q12809) (assay: primary screen, population patch clamp on CHO cells stably expressing hERG).
Sequence of human ether-à-go-go-related gene (hERG) potassium channel (Q12809 whole entry, looked up): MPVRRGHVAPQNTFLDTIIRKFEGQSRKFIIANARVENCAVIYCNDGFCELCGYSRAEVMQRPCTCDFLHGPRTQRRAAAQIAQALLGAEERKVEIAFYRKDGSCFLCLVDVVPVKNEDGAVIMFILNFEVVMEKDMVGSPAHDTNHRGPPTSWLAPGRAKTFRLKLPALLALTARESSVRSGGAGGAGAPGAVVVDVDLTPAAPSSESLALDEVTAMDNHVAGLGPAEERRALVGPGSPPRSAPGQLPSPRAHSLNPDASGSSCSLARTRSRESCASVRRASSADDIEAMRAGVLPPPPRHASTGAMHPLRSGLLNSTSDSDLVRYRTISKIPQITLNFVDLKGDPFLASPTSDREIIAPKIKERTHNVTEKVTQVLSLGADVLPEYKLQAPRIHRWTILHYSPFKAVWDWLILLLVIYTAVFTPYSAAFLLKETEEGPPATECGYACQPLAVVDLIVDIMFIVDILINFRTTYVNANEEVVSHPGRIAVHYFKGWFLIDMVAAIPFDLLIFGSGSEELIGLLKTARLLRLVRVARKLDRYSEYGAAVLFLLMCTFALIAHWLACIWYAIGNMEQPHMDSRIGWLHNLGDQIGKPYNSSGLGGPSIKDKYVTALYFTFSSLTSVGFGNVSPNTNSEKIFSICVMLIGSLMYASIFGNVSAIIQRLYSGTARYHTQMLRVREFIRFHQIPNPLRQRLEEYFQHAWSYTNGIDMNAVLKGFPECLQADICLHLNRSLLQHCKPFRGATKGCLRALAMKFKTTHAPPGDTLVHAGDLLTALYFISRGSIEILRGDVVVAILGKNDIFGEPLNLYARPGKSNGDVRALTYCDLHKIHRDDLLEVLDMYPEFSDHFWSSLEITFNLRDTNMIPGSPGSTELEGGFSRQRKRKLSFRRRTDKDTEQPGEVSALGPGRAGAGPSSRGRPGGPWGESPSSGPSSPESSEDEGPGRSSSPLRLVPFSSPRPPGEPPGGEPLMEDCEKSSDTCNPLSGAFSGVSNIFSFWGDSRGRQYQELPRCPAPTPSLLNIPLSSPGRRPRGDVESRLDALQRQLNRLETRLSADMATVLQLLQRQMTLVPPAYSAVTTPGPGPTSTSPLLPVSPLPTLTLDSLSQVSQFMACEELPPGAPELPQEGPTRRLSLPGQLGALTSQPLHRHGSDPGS
With `COC(=O)Nc1nnc(COc2ccccc2)s1` the “hERG current change (%, negative = inhibition) at 10uM” value was 26.4%.
In the case of `COc1cc(/C=C2/C(=N)N3N=C(C(C)C)SC3=NC2=O)ccc1OS(=O)(=O)c1ccccc1`, the “hERG current change (%, negative = inhibition) at 10uM” value was 6.72%.
For `COc1ccc(OC)c(Nc2nc3ccc(C)cc3n3cnnc23)c1`, the “hERG current change (%, negative = inhibition) at 10uM” value was -1.09%.
With `Cn1nc(-c2ccc(N3CCOCC3)c(NS(=O)(=O)c3ccc(Cl)cc3)c2)c2ccccc2c1=O` the “hERG current change (%, negative = inhibition) at 10uM” value was -9.74%.
With `C/C(=N\OCc1cccc(C(=O)O)c1)c1ccc(Cl)cc1` the “hERG current change (%, negative = inhibition) at 10uM” value was 5.57%.
In the case of `O=C(Nc1ccccc1F)c1ccc(CNS(=O)(=O)c2cccc(C(F)(F)F)c2)cc1`, the “hERG current change (%, negative = inhibition) at 10uM” value was -0.769%.
With `CS(=O)(=O)N1CCC(Oc2ccccc2C(=O)N2CCNC(=O)C2)CC1` the “hERG current change (%, negative = inhibition) at 10uM” value was 12.1%.
In the case of `CCOc1ccc(-c2nc(N)ncc2-c2ccc(OC)cc2)c(O)c1`, the “hERG current change (%, negative = inhibition) at 10uM” value was 9.52%.
In the case of `CC(=O)Nc1sc2c(c1C#N)CCCC2`, the “hERG current change (%, negative = inhibition) at 10uM” value was 13.2%.
`CCOC(=O)C1(Cc2ccc(OC)cc2)CCN(C(=O)c2cc(C)on2)CC1` was tested, and the “hERG current change (%, negative = inhibition) at 10uM” value was -6.3%.
`Cc1cc2nc3c(=O)n(CCc4ccccc4)c(=O)[nH]c3nc2cc1N` was tested, and the “hERG current change (%, negative = inhibition) at 10uM” value was 18.5%.
With `O=C(CCNS(=O)(=O)c1ccc(Br)cc1)NCC1CCCO1` (stereo not drawn) the “hERG current change (%, negative = inhibition) at 10uM” value was 13.1%.
`Cc1ccc(CNc2nc(-c3cccnc3)nc3ccccc23)cc1` was tested, and the “hERG current change (%, negative = inhibition) at 10uM” value was 8.72%.
In the case of `O=C(CN1CCN(c2ncccn2)CC1)N1CCCC1.O=C(O)C(=O)O`, the “hERG current change (%, negative = inhibition) at 10uM” value was 4.95%.
For `COc1cccc(-n2c(=S)[nH]c3ccccc3c2=O)c1`, the “hERG current change (%, negative = inhibition) at 10uM” value was 20.8%.
For `c1cncc(-c2noc(-c3ccco3)n2)c1`, the “hERG current change (%, negative = inhibition) at 10uM” value was -4.57%.
For `O=C(c1cc2c(=O)n3ccccc3nc2s1)N1CCc2ccccc2C1`, the “hERG current change (%, negative = inhibition) at 10uM” value was -21.5%.
`O=C(OC1CCCCC1=O)c1cccc(S(=O)(=O)N2CCOCC2)c1` (stereo not drawn) was tested, and the “hERG current change (%, negative = inhibition) at 10uM” value was 9.82%.
With `Cc1nc(NC(=O)C2CC2)sc1C(=O)N1CCCCC1` the “hERG current change (%, negative = inhibition) at 10uM” value was -4.2%.
With `CCc1ccc(N(CC(=O)NC2CCCC2)S(=O)(=O)c2c(C)noc2C)cc1` the “hERG current change (%, negative = inhibition) at 10uM” value was -7.76%.
In the case of `O=c1cc(-c2ccccc2Cl)oc2cc(O)cc(O)c12`, the “hERG current change (%, negative = inhibition) at 10uM” value was 2.81%.
`CCOc1ccc(C(=O)NC(=S)Nc2cc(C)ccn2)cc1[N+](=O)[O-]` was tested, and the “hERG current change (%, negative = inhibition) at 10uM” value was 15.5%.
With `Cc1cc(C(=O)OC(C)C(=O)N2CCc3ccccc32)ccc1[N+](=O)[O-]` (stereo not drawn) the “hERG current change (%, negative = inhibition) at 10uM” value was -3.61%.
For `CCN1C(=O)c2cccc3c(Cl)ccc1c23`, the “hERG current change (%, negative = inhibition) at 10uM” value was -8.15%.
For `CC(=O)c1cc(-c2ccccc2)n(CC(=O)NC(C)(C)C)c1C`, the “hERG current change (%, negative = inhibition) at 10uM” value was -1.35%.
With `Cn1nc(C(=O)Nc2nnc(C3CC3)s2)c2ccccc2c1=O` the “hERG current change (%, negative = inhibition) at 10uM” value was 25%.
`COC(=O)CC1C(=O)NCCN1C(=S)NC(=O)CCc1ccccc1` (stereo not drawn) was tested, and the “hERG current change (%, negative = inhibition) at 10uM” value was 6.79%.
In the case of `CN(O)/C=N/C(=S)Nc1ccc(Cl)cc1Cl`, the “hERG current change (%, negative = inhibition) at 10uM” value was 23.3%.
In the case of `O=C(O)c1cc(-c2ccccc2Cl)n[nH]1`, the “hERG current change (%, negative = inhibition) at 10uM” value was 4.91%.
With `O=C(Cc1cccc2ccccc12)N/N=C/C=C/c1cccc([N+](=O)[O-])c1` the “hERG current change (%, negative = inhibition) at 10uM” value was 4.55%.
With `CCCCCNC(=O)Cc1ccc(S(=O)(=O)N2CCOCC2)s1` the “hERG current change (%, negative = inhibition) at 10uM” value was -5.94%.
In the case of `C=CCN(CC=C)C(=S)NCCc1ccc(OC)c(OC)c1`, the “hERG current change (%, negative = inhibition) at 10uM” value was -3.41%.
In the case of `CCOC(=O)c1c(-c2ccccc2)oc2ccc(O)c(CN3CCN(C)CC3)c12`, the “hERG current change (%, negative = inhibition) at 10uM” value was -23.5%.
For `Cc1csc(NC(=O)CNS(=O)(=O)c2cccs2)n1`, the “hERG current change (%, negative = inhibition) at 10uM” value was 18%.
`COC(=O)C1=C(C)N(CCCC(=O)O)C(=O)NC1c1ccc(OC)cc1` (stereo not drawn) was tested, and the “hERG current change (%, negative = inhibition) at 10uM” value was 11.2%.
For `CCOCCCn1c(=S)[nH]c2ncccc2c1=O`, the “hERG current change (%, negative = inhibition) at 10uM” value was 12.1%.
`Cc1cc(Nc2ccc(N3CCC(C)CC3)cc2)n2ncnc2n1` was tested, and the “hERG current change (%, negative = inhibition) at 10uM” value was 2.04%.
In the case of `Cc1ccc(Nc2ccc([N+](=O)[O-])nc2[N+](=O)[O-])cc1`, the “hERG current change (%, negative = inhibition) at 10uM” value was -0.801%.
In the case of `Cc1nn(-c2ccccc2)c(C)c1P(=O)(c1ccccc1)N(C)C` (stereo not drawn), the “hERG current change (%, negative = inhibition) at 10uM” value was 14.8%.
For `CCOc1ccc(CCNC(=O)C2CC(=O)N(c3ccc4c(c3)OCCO4)C2)cc1OCC` (stereo not drawn), the “hERG current change (%, negative = inhibition) at 10uM” value was 19.5%.
With `CCOc1ccc(Nc2nc(Cc3nnc(SCC(=O)NCC4CCCO4)n3C)cs2)cc1` (stereo not drawn) the “hERG current change (%, negative = inhibition) at 10uM” value was -3.74%.
In the case of `COc1ccc2[nH]c(C(=O)N3CCC(Cc4ccccc4)CC3)cc2c1`, the “hERG current change (%, negative = inhibition) at 10uM” value was 19.2%.
With `COc1ccc(CN2C(=O)c3cccnc3C2=O)cc1S(=O)(=O)N1CCCCC1` the “hERG current change (%, negative = inhibition) at 10uM” value was -2.62%.
With `COc1ccc(-c2nnc(SCC(=O)Nc3cc(F)ccc3C)o2)cc1` the “hERG current change (%, negative = inhibition) at 10uM” value was -4.65%.
With `Cc1ccc(CN2CCC(n3nccc3NC(=O)c3ccccc3C)CC2)o1` the “hERG current change (%, negative = inhibition) at 10uM” value was -25.9%.
`Cc1ccc(S(=O)(=O)N(Cc2ccccc2)c2ccccn2)cc1[N+](=O)[O-]` was tested, and the “hERG current change (%, negative = inhibition) at 10uM” value was -12.1%.
In the case of `O=C(O)COc1c(-c2ccc(Cl)cc2)oc2ccccc2c1=O`, the “hERG current change (%, negative = inhibition) at 10uM” value was 11.3%.
With `Cc1ccc(NC(=O)CN(C)C(=O)CSc2nncn2C)cc1` the “hERG current change (%, negative = inhibition) at 10uM” value was 1.44%.
For `Cc1cc(C)cc(N(CC(=O)NC2CCCC2)C(=O)C2(C)CC(=O)N=C3C=CC=CN32)c1` (stereo not drawn), the “hERG current change (%, negative = inhibition) at 10uM” value was 22.8%.
In the case of `Nc1nnnn1/N=C/c1ccccn1`, the “hERG current change (%, negative = inhibition) at 10uM” value was -11.9%.
In the case of `COc1cccc(/C=C2\C(=O)C(=O)c3ccccc32)c1`, the “hERG current change (%, negative = inhibition) at 10uM” value was -0.348%.
For `Cc1nc2c(C(=O)N3CCOCC3)cnn2c(C)c1Cc1ccc(Cl)cc1`, the “hERG current change (%, negative = inhibition) at 10uM” value was -33%.
`CC(C)(C)NS(=O)(=O)c1ccc(NC(=O)C2CCCCC2)cc1` was tested, and the “hERG current change (%, negative = inhibition) at 10uM” value was 11.2%.
In the case of `Cc1ccc(/C=N/NC(=O)CSc2ccccn2)o1`, the “hERG current change (%, negative = inhibition) at 10uM” value was 12.2%.
For `Cc1ccc(C2=NOC(C)(c3sc(-c4ccc(Cl)cc4)nc3C)C2)cc1` (stereo not drawn), the “hERG current change (%, negative = inhibition) at 10uM” value was 6.62%.
For `COc1cc(CNCc2ccc(Br)cc2)cc(OC)c1.O=C(O)C(=O)O`, the “hERG current change (%, negative = inhibition) at 10uM” value was -32.3%.
For `CC(=O)N1CCc2c(sc(NC(=O)Cc3ccccc3)c2C(N)=O)C1`, the “hERG current change (%, negative = inhibition) at 10uM” value was 13.5%.
